# Test results published in paper PMC6208770.
# Sequences of proteins named here, by UniProt entry; tags and fusion partners are left off.
# UniProt P33993: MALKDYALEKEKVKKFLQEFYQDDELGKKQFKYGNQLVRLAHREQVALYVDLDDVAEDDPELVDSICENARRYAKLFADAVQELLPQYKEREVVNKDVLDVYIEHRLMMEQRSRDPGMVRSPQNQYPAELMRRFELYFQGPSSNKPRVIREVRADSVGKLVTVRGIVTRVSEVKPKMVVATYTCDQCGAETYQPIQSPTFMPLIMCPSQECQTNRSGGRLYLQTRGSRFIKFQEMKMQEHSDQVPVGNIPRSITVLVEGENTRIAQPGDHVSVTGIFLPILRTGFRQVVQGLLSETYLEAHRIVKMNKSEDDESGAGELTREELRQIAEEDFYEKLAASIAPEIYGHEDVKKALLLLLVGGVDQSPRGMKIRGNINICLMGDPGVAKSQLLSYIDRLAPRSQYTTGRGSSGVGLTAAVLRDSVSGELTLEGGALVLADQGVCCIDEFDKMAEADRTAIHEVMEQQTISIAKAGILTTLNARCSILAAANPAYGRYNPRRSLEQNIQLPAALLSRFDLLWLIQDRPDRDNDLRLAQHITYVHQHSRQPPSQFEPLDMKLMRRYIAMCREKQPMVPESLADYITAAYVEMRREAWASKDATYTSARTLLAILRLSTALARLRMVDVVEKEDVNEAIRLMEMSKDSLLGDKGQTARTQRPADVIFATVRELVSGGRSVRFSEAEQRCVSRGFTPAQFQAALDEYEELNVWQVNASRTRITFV
# No constants are given. Whether binding was seen depends on the method and setting. Binding seen in cells or lysates may run through a third protein. Some binding calls cover weakened binding; strength is not graded here. Where a sequence is shown, tags or fusion partners need not be part of it.
# B1: HA-tagged OGT (enzyme, UniProt O15294 1-1046)
# chain: MASSVGNVADSTEPTKRMLSFQGLAELAHREYQAGDFEAAERHCMQLWRQEPDNTGVLLLLSSIHFQCRRLDRSAHFSTLAIKQNPLLAEAYSNLGNVYKERGQLQEAIEHYRHALRLKPDFIDGYINLAAALVAAGDMEGAVQAYVSALQYNPDLYCVRSDLGNLLKALGRLEEAKACYLKAIETQPNFAVAWSNLGCVFNAQGEIWLAIHHFEKAVTLDPNFLDAYINLGNVLKEARIFDRAVAAYLRALSLSPNHAVVHGNLACVYYEQGLIDLAIDTYRRAIELQPHFPDAYCNLANALKEKGSVAEAEDCYNTALRLCPTHADSLNNLANIKREQGNIEEAVRLYRKALEVFPEFAAAHSNLASVLQQQGKLQEALMHYKEAIRISPTFADAYSNMGNTLKEMQDVQGALQCYTRAIQINPAFADAHSNLASIHKDSGNIPEAIASYRTALKLKPDFPDAYCNLAHCLQIVCDWTDYDERMKKLVSIVADQLEKNRLPSVHPHHSMLYPLSHGFRKAIAERHGNLCLDKINVLHKPPYEHPKDLKLSDGRLRVGYVSSDFGNHPTSHLMQSIPGMHNPDKFEVFCYALSPDDGTNFRVKVMAEANHFIDLSQIPCNGKAADRIHQDGIHILVNMNGYTKGARNELFALRPAPIQAMWLGYPGTSGALFMDYIITDQETSPAEVAEQYSEKLAYMPHTFFIGDHANMFPHLKKKAVIDFKSNGHIYDNRIVLNGIDLKAFLDSLPDVKIVKMKCPDGGDNADSSNTALNMPVIPMNTIAEAVIEMINRGQIQITINGFSISNGLATTQINNKAATGEEVPRTIIVTTRSQYGLPEDAIVYCNFNQLYKIDPSTLQMWANILKRVPNSVLWLLRFPAVGEPNIQQYAQNMGLPQNRIIFSPVAPKEEHVRRGQLADVCLDTPLCNGHTTGMDVLWAGTPMVTMPGETLASRVAASQLTCLGCLELIAKNRQEYEDIAVKLGTDLEYLKKVRGKVWKQRISSPLFNTKQYTMELERLYLQMWEHYAAGNKPDHMIKPVEVTESA
# What was measured:
# Test in all cases: co-IP; whole cell extracts of HEK293T cells transiently transfected with HA-OGT; immunoprecipitation of either OGT or MCM subunits; buffers without SDS, one wash with 300 mM NaCl; Western blot
# [1] = target: T1, minichromosome maintenance protein MCM3 (human (endogenous in MCF7, MDA-MB-231, HEK293T)) (UniProt P25205)
# T1 sequence: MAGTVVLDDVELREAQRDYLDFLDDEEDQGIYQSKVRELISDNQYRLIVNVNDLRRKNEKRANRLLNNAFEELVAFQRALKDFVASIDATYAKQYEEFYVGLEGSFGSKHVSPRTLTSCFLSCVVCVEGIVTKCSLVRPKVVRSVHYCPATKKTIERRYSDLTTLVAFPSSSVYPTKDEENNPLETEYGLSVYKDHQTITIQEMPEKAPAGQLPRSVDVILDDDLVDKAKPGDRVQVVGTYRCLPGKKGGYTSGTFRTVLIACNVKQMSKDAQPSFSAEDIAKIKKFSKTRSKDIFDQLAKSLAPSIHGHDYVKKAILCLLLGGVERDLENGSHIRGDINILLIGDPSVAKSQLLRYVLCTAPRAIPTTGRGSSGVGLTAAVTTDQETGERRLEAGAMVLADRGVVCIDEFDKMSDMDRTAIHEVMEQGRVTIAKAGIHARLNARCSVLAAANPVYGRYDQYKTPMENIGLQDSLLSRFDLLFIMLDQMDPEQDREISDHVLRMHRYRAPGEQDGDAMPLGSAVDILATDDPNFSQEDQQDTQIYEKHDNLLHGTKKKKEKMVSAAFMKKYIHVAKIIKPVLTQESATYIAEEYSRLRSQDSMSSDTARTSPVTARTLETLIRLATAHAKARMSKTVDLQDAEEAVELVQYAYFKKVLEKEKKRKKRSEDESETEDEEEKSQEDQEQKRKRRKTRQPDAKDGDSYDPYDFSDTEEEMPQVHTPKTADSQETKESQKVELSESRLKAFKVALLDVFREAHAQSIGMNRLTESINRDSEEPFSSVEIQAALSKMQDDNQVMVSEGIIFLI
# [2] = target: T2, minichromosome maintenance protein MCM4 (human (endogenous in MCF7, HEK293T)) (UniProt P33991)
# T2 sequence: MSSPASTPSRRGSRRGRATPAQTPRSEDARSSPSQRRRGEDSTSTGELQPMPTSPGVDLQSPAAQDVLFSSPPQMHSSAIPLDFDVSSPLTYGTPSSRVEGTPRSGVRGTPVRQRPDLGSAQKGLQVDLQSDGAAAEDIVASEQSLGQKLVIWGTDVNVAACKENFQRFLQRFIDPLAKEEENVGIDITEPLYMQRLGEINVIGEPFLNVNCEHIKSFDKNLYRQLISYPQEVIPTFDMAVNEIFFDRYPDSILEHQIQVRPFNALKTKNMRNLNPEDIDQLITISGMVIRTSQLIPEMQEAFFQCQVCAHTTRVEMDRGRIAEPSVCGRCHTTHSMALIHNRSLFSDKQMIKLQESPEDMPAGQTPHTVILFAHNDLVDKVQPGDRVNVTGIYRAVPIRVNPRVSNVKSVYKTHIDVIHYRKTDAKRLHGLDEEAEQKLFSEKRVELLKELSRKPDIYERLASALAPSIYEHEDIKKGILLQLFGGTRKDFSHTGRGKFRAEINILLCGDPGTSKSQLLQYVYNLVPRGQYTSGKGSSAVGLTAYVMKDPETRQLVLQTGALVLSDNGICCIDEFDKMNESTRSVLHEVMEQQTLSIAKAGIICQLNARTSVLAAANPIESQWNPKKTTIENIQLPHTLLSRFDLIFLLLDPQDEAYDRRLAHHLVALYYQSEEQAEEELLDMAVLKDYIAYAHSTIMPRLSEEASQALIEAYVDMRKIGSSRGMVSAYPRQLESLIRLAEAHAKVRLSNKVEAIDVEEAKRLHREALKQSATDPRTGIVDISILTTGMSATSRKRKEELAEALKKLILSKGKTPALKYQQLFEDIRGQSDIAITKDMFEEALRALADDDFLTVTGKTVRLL
# [3] = target: minichromosome maintenance protein MCM7 (human (endogenous in MCF7, MDA-MB-231, HEK293T)) (UniProt P33993)
binder,measurement,setting,value
B1,binding,[1],binds
same,binding,[2],no binding
same,binding,[3],binds
